The test system of one assay is HSkMC. The assay can be described thus: cytotoxicity call (relative viability < 0.9). The note with it: 10 µM.
A further assay has as its system HepG2. The assay can be described thus: cytotoxicity call (relative viability < 0.9). The note with it: 10 µM.
The test system of the next assay is S. aureus RN4220. Description: growth inhibition call (relative growth <= 0.2). Conditions: 50 µM.

The other results are listed elsewhere or left out.

Drawing on the antibiotic and cytotoxicity screens of Wong et al. (2023), this text covers cytotoxicity call and growth inhibition call for 28 compounds.

With `Cc1noc(C)c1S(=O)(=O)Nc1ccc2c(c1)CC(=O)N([C@H](C)CO)C[C@H](C)[C@@H](CN(C)S(=O)(=O)c1cccs1)O2`, the cytotoxicity call with HSkMC and in the assay on HepG2 was “inactive” in each case. Besides, the growth inhibition call with S. aureus RN4220 was “inactive”.

Consider `COc1cccc(NC(=O)N2C[C@H](O)COC[C@@H]3O[C@@H](CC(=O)NCc4ccccc4F)CC[C@H]32)c1`, for which the cytotoxicity call with HSkMC and in the assay with HepG2 was “inactive” each time. Besides, the growth inhibition call in the assay with S. aureus RN4220 was “inactive”.

`CO[C@@H]1CN(C)C(=O)c2ccc(NC(=O)CC(F)(F)F)cc2OC[C@@H](C)N(C(=O)C2CCOCC2)C[C@@H]1C`: the cytotoxicity call in the assay with HSkMC and with HepG2 was “inactive” each time. In addition, in the assay with S. aureus RN4220, the growth inhibition call is “inactive”.

In the case of `c1ccc(CNc2ccc3c(ccc4c5ccccc5[nH]c34)n2)cc1`, the cytotoxicity call with HSkMC and in the assay on HepG2 was “active” each time. Also, the growth inhibition call with S. aureus RN4220 is “inactive”.

On to `COc1ccc(NC(=O)N(C)C[C@H]2OCCCC[C@H](C)Oc3ccc(NC(=O)CCC(F)(F)F)cc3C(=O)N([C@@H](C)CO)C[C@H]2C)cc1`, for which the cytotoxicity call in the assay with HSkMC and in the assay on HepG2 was “inactive” each time. For the same compound, the growth inhibition call in the assay with S. aureus RN4220 is “inactive”.

Turning to `COc1ccc(NC(=O)N(C)C[C@@H]2Oc3ccc(NC(=O)CCCCCC(=O)Nc4ccccc4N)cc3CC(=O)N([C@H](C)CO)C[C@@H]2C)cc1`, the cytotoxicity call in the assay on HSkMC and in the assay on HepG2 was “inactive” each time. In addition, in the assay with S. aureus RN4220, the growth inhibition call was “inactive”.

Turning to `C[C@@H]1CN([C@H](C)CO)C(=O)Cc2cc(NS(C)(=O)=O)ccc2O[C@H]1CN(C)Cc1ccc(C(=O)Nc2ccccc2N)cc1`, the cytotoxicity call in the assay on HSkMC and in the assay on HepG2 was “inactive” in each case. Moreover, in the assay on S. aureus RN4220, the growth inhibition call is “inactive”.

With `O=C(C[C@@H]1CC[C@H]2[C@@H](COC[C@@H](O)CN2S(=O)(=O)c2ccccc2)O1)NCCN1CCCC1`, the cytotoxicity call in the assay with HSkMC and in the assay on HepG2 was “inactive” in each case. Besides, the growth inhibition call in the assay with S. aureus RN4220 was “inactive”.

For the compound `COc1ccc(NC(=O)N(C)C[C@H]2OCCCC[C@@H](C)Oc3ccc(NC(=O)Nc4ccc(C(F)(F)F)cc4)cc3C(=O)N([C@@H](C)CO)C[C@@H]2C)cc1`, the cytotoxicity call with HSkMC and in the assay on HepG2 was “inactive” each time. For the same compound, the growth inhibition call in the assay with S. aureus RN4220 was “inactive”.

Take `C[C@H](CO)N1C[C@H](C)[C@@H](CN(C)Cc2ccncc2)Oc2cc(C#CC(C)(C)O)ccc2S1(=O)=O`: the cytotoxicity call with HSkMC and with HepG2 was “inactive” each time. The growth inhibition call in the assay on S. aureus RN4220 is “inactive”.

For the compound `Oc1cc2c(cc1O)C1c3ccc(O)c(O)c3OCC1(O)C2` (centres undefined), the cytotoxicity call in the assay with HSkMC and in the assay with HepG2 was “inactive” each time. For the same compound, the growth inhibition call with S. aureus RN4220 was “inactive”.

For the compound `C[C@H](CO)N1C[C@H](C)[C@H](CN(C)S(=O)(=O)c2cn(C)cn2)Oc2c(NC(=O)c3nc4ccccc4s3)cccc2C1=O`, the cytotoxicity call in the assay on HSkMC and in the assay on HepG2 was “inactive” each time. Moreover, in the assay with S. aureus RN4220, the growth inhibition call was “inactive”.

Take `CC1=CCc2c(cc3oc(C)cc(=O)c3c2O)OC1`: the cytotoxicity call with HSkMC and with HepG2 was “inactive” throughout. Further, the growth inhibition call with S. aureus RN4220 is “inactive”.

For the compound `C[C@@H]1CCCCO[C@@H](CN(C)S(=O)(=O)c2cccs2)[C@@H](C)CN([C@H](C)CO)C(=O)c2cc(NC(=O)Cc3ccccc3)ccc2O1`, the cytotoxicity call in the assay with HSkMC and in the assay on HepG2 was “inactive” each time. Moreover, the growth inhibition call in the assay on S. aureus RN4220 was “inactive”.

Regarding `Cn1c(=O)c2[nH]c(Br)nc2n(C)c1=O`, the cytotoxicity call with HSkMC and in the assay with HepG2 was “inactive” throughout. The growth inhibition call in the assay with S. aureus RN4220 was “inactive”.

For `COc1ccc(-c2csc(C(C#N)=C3CCCCC3)n2)cc1`, the cytotoxicity call in the assay with HSkMC and in the assay on HepG2 was “inactive” each time. Also, the growth inhibition call in the assay with S. aureus RN4220 is “inactive”.

With `C[C@H](CO)N1C[C@H](C)[C@@H](CN(C)C(=O)Nc2ccccc2)OCc2ccccc2-c2c(n(C)c3ccccc23)C1=O`, the cytotoxicity call with HSkMC and in the assay with HepG2 was “inactive” each time. Moreover, the growth inhibition call in the assay with S. aureus RN4220 is “inactive”.

With `C[C@@H]1CN([C@H](C)CO)C(=O)c2cc(Br)cnc2O[C@@H]1CN(C)C(=O)Nc1cccc(F)c1`, the cytotoxicity call with HSkMC and in the assay on HepG2 was “inactive” throughout. Further, the growth inhibition call in the assay with S. aureus RN4220 was “inactive”.

Turning to `C[C@@H]1CN([C@@H](C)CO)C(=O)c2cc(NC(=O)Nc3cccc4ccccc34)ccc2O[C@@H](C)CCCCO[C@H]1CN(C)Cc1ccccc1`, in the assay with HSkMC, the cytotoxicity call is “inactive”. In addition, the cytotoxicity call in the assay with HepG2 was “active”. In addition, the growth inhibition call in the assay with S. aureus RN4220 was “inactive”.

Turning to `C[C@H](CO)N1C[C@H](C)[C@H](CN(C)S(=O)(=O)c2cn(C)cn2)OCCCC[C@H](C)Oc2ccc(NC(=O)c3ccncc3)cc2C1=O`, the cytotoxicity call with HSkMC and with HepG2 was “inactive” throughout. Also, the growth inhibition call in the assay with S. aureus RN4220 was “inactive”.

With `C[C@H]1CN([C@@H](C)CO)C(=O)c2cc(NC(=O)Nc3cccc4ccccc34)ccc2O[C@H]1CN(C)Cc1ccccc1`, the cytotoxicity call with HSkMC and in the assay on HepG2 was “inactive” throughout. The growth inhibition call in the assay with S. aureus RN4220 was “inactive”.

Take `C[C@@H]1CN([C@H](C)CO)C(=O)c2cc(NC(=O)Cn3cnnn3)ccc2O[C@@H]1CN(C)Cc1ccncc1`: the cytotoxicity call with HSkMC and in the assay with HepG2 was “inactive” each time. Besides, the growth inhibition call in the assay on S. aureus RN4220 was “inactive”.

Take `O=C(C[C@H]1C[C@H]2c3cc(NC(=O)Cc4ccncc4)ccc3O[C@H]2[C@H](CO)O1)NCc1cccc(F)c1`: the cytotoxicity call with HSkMC and with HepG2 was “inactive” throughout. Also, the growth inhibition call in the assay on S. aureus RN4220 is “inactive”.

In the case of `C[C@@H]1CN([C@@H](C)CO)C(=O)c2cc(NC(=O)NC3CCCCC3)ccc2O[C@@H]1CN(C)Cc1ccc(C(F)(F)F)cc1`, the cytotoxicity call with HSkMC and with HepG2 was “inactive” in each case. Also, the growth inhibition call in the assay on S. aureus RN4220 was “inactive”.

`C[C@@H]1CN([C@@H](C)CO)S(=O)(=O)c2ccc(C#CC3CC3)cc2O[C@@H]1CN(C)C(=O)C1CCCCC1`: the cytotoxicity call in the assay with HSkMC and in the assay on HepG2 was “inactive” each time. In the assay on S. aureus RN4220, the growth inhibition call is “inactive”.

Consider `C[C@@H]1CCCCO[C@H](CN(C)Cc2ccncc2)[C@@H](C)CN([C@@H](C)CO)C(=O)c2cc(NS(C)(=O)=O)ccc2O1`, for which the cytotoxicity call in the assay on HSkMC (human skeletal muscle cells) and with HepG2 was “inactive” in each case. Besides, the growth inhibition call in the assay with S. aureus RN4220 was “inactive”.

`C[C@@H]1CN([C@H](C)CO)C(=O)c2cc(NC(=O)Nc3cccc4ccccc34)ccc2O[C@@H]1CN(C)C(=O)Nc1ccccc1`: the cytotoxicity call with HSkMC and in the assay with HepG2 was “inactive” each time. Further, in the assay on S. aureus RN4220, the growth inhibition call is “inactive”.

Consider `C[C@H]1CN([C@@H](C)CO)C(=O)c2cccc(NC(=O)Nc3ccc4c(c3)OCO4)c2O[C@H]1CN(C)S(=O)(=O)c1cn(C)cn1`, for which the cytotoxicity call in the assay with HSkMC and with HepG2 was “inactive” throughout. Also, the growth inhibition call with S. aureus RN4220 was “inactive”.
